Experimental data as given in the supplement of paper PMC8285479.
Where a name gives a salt, the structure may show the parent alone. ± gives the standard deviation of the averaged measurements. Whole data set: some 1,900 compounds, median “normalised cell viability (NPI; 0 = phenylarsine oxide control, 1 = DMSO control)” near 1, cut for the lowest 2% near 0.039. The list shows a part of the results.

Tested on: NCI-H1944
Assay: normalised cell viability (NPI; 0 = phenylarsine oxide control, 1 = DMSO control) (fraction of DMSO control); NCI-H1944 is a non-small cell lung cancer line; higher = more viable cells (less compound toxicity)
Conditions: 6 days
[1] = glucocorticoid arm: hydrocortisone 2.75 uM co-treatment, compound 1 µM
[2] = glucocorticoid arm: hydrocortisone 2.75 uM co-treatment, compound 5 µM
[3] = glucocorticoid arm: hydrocortisone 2.75 uM pre-treated 2 days and continued, compound 1 µM
[4] = glucocorticoid arm: hydrocortisone 2.75 uM pre-treated 2 days and continued, compound 5 µM
[5] = glucocorticoid arm: vehicle, compound 1 µM
[6] = glucocorticoid arm: vehicle, compound 5 µM
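Note: CTB read-out in 384-well plates, mean of triplicate wells, normalised per plate against 1 µM phenylarsine oxide and 0.1% DMSO, compounds added 24 h after seeding.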

Row | SMILES | normalised cell viability [1] | normalised cell viability [2] | normalised cell viability [3] | normalised cell viability [4] | normalised cell viability [5] | normalised cell viability [6]
1 | COc1cc(OC)c(/C=C/S(=O)(=O)Cc2ccc(OC)c(NCC(=O)O)c2)c(OC)c1 | 0.307 ± 0.021 | 0.261 ± 0.026 | 0.572 ± 0.03 | 0.572 ± 0.051 | 0.0447 ± 0.0079 | 0.0341 ± 0.0062
2 | Nc1ccc(CCNc2ncnc3c2ncn3C2OC(CO)C(O)C2O)cc1 (stereo unspecified) [N6-2-(4-Aminophenyl)ethyladenosine] | 0.9993 ± 0.0011 | 1.01 ± 0.016 | 0.9863 ± 0.0057 | 1 ± 0.026 | 0.992 ± 0.007 | 0.996 ± 0.016
3 | COc1ccc(-c2ccc3c(N4CCOCC4)nc(N4C[C@@H](C)O[C@@H](C)C4)nc3n2)cc1CO | 0.567 ± 0.0085 | 0.5117 ± 0.0011 | 0.619 ± 0.021 | 0.615 ± 0.055 | 0.615 ± 0.017 | 0.564 ± 0.025
4 | OCC1OC(n2cnc3c(NCCc4ccccc4)ncnc32)C(O)C1O (stereo unspecified) [N6-2-Phenylethyladenosine] | 1.006 ± 0.0069 | 0.9327 ± 0.0083 | 0.852 ± 0.27 | 1 ± 0.017 | 0.993 ± 0.0062 | 1 ± 0.017
5 | OC[C@H]1O[C@@H](n2cnc3c(Nc4ccccc4)ncnc32)[C@H](O)[C@@H]1O [N6-Phenyladenosine] | 1 ± 0.014 | 1.01 ± 0.011 | 1.02 ± 0.022 | 1.013 ± 0.0058 | 1.01 ± 0.01 | 1.002 ± 0.0076
6 | NCCNS(=O)(=O)c1cccc2cnccc12 [H-9 dihydrochloride] | 1 ± 0.017 | 1.017 ± 0.0058 | 1.01 ± 0.013 | 1.01 ± 0.018 | 1.01 ± 0.011 | 1.006 ± 0.0069
7 | CC1=C(/C=C/C(C)=C/C=C/C(C)=C\C(=O)O)C(C)(C)CCC1 [13-cis-retinoic acid] | 0.981 ± 0.0072 | 0.988 ± 0.036 | 0.998 ± 0.013 | 0.97 ± 0.021 | 1.01 ± 0.01 | 0.999 ± 0.011
8 | Nc1nc(OCc2ccccc2)c2nc[nH]c2n1 [O6-benzylguanine] | 0.989 ± 0.0095 | 0.943 ± 0.015 | 0.992 ± 0.014 | 0.92 ± 0.069 | 0.9727 ± 0.0032 | 0.9907 ± 0.0086
9 | CC(C)(Sc1ccc(CCN(CCCCC2CCCCC2)C(=O)NC2CCCCC2)cc1)C(=O)O | 1.027 ± 0.0058 | 1.027 ± 0.0058 | 1.03 ± 0.01 | 1.03 ± 0.015 | 1.027 ± 0.0058 | 1.037 ± 0.0058
10 | NC1C=CC=C(C(=O)O)C1 (stereo unspecified) [Gabaculine hydrochloride] | 0.974 ± 0.017 | 0.96 ± 0.017 | 0.9813 ± 0.0046 | 0.967 ± 0.0057 | 0.992 ± 0.016 | 0.9693 ± 0.0055
11 | CSc1ccc2c(c1)N(CCC1CCCCN1C)c1ccccc1S2 (stereo unspecified) [Thioridazine hydrochloride] | 0.997 ± 0.015 | 0.896 ± 0.074 | 1.02 ± 0.025 | 1.043 ± 0.0058 | 0.997 ± 0.011 | 0.545 ± 0.24
12 | CN(Cc1cnc2nc(N)nc(N)c2n1)c1ccc(C(=O)N[C@@H](CCC(=O)O)C(=O)O)cc1 [Methotrexate hydrate; Methotrexate] | 1.003 ± 0.0058 | 0.387 ± 0.02 | 1.01 ± 0.01 | 0.569 ± 0.041 | 0.994 ± 0.006 | 0.227 ± 0.02
13 | CN(Cc1cnc2nc(N)nc(N)c2n1)c1ccc(C(=O)N[C@@H](CCC(=O)O)C(=O)O)cc1 [Methotrexate hydrate] | 0.467 ± 0.023 | 0.396 ± 0.016 | 0.709 ± 0.039 | 0.572 ± 0.057 | 0.277 ± 0.0078 | 0.232 ± 0.024
14 | Nc1cc(F)ccc1NC(=O)/C=C/c1cnn(C/C=C/c2ccccc2)c1 | 0.978 ± 0.028 | 1.01 ± 0.01 | 0.969 ± 0.036 | 1.017 ± 0.0058 | 0.9837 ± 0.0015 | 0.875 ± 0.01
15 | CCN1CCc2nc(N)oc2CC1 [B-HT 933 dihydrochloride] | 1.013 ± 0.0058 | 1.007 ± 0.0058 | 1.003 ± 0.0058 | 1.01 ± 0.015 | 0.9913 ± 0.0031 | 0.9947 ± 0.005
16 | C[N+](C)(C)CCOC(=O)CCC(=O)OCC[N+](C)(C)C [Succinylcholine chloride] | 1.004 ± 0.0098 | 1.03 ± 0.02 | 0.893 ± 0.21 | 1.01 ± 0.011 | 1.013 ± 0.0058 | 1.01 ± 0.011
